Laboratory results published in PubChem BioAssay (Tox21).
Values joined by “and” are separate entries in the source; they are usually repeats but may differ in a detail not shown here. Equal values may be shown once. Inconclusive results, whose numbers are uncertain, are shown with a selection of clear calls. For part of these data: Potencies of inconclusive entries are doubtful fits and often do not repeat. Where a structure was tested more than once in an assay, its records may differ in their call. Active and inactive are the calls of the source. Unless noted, calls come from the whole dose curve; as a rule, active = well fitted curve in the direction sought with a large enough effect in the repeat runs; inconclusive = weak or mixed curves; inactive = no such curve, though single readings can be large; an effect the other way counts as inactive or inconclusive.

How the values were obtained:
[1] = qHTS assay to identify small molecule antagonists of the peroxisome proliferator-activated receptor gamma (PPARg) signaling pathway - cell viability counter screen (AID 743194); details: PPARg-bla HEK293H viability, CellTiter-Glo luminescence, 17 h; Potency: co-treated with 50 nM rosiglitazone unless noted; activity change, negative = cytotoxicity: at 62.6 µM (top of the series), co-treated with 50 nM rosiglitazone unless noted; note: nearly all actives have a fitted effect of over 55% in size; note: potency is the fitted concentration of half-maximal effect; for activity change, negative = cytotoxicity: % is set by controls: 0 for no effect and ±100 for the full control effect
In short: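 PPARg-UAS-bla HEK293H cells were plated, rested 5 h at 37 C, then treated with compounds plus rosiglitazone (50 nM final) for 17 h at 37 C; viability was then read by CellTiter-Glo luminescence after 30 min at room temperature.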

[2] = qHTS assay to identify small molecule antagonists of the peroxisome proliferator-activated receptor delta (PPARd) signaling pathway - cell viability counter screen (AID 743213); details: PPARd-bla HEK293H viability, CellTiter-Glo luminescence, 17 h; viability change, negative = cytotoxic: at 62 µM (top of the series) unless noted; note: nearly all actives have a fitted effect of over 50% in size; note: potency is the fitted concentration of half-maximal effect; for viability change, negative = cytotoxic: % is set by controls: 0 for no effect and ±100 for the full control effect
In short: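 CellTiter-Glo was added to PPARd-bla HEK293H wells following 17 h compound treatment in the presence of 300 nM L165041. Luminescence was recorded after 30 min at room temperature.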

[3] = qHTS assay to identify small molecule agonists of the farnesoid-X-receptor (FXR) signaling pathway - cell viability counter screen (AID 743218); details: FXR-bla HEK293T viability, CellTiter-Glo luminescence, 16 h; viability change, negative = cytotoxic: at 62.6 µM (top of the series) unless noted; note: potency is the fitted concentration of half-maximal effect; nearly all actives have a fitted effect of over 45% in size
In short: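 FXR-UAS-bla HEK 293T cells exposed to compounds for 16 h at 37C. Cytotoxicity read in the same wells by CellTiter-Glo luminescence after 30 min at room temperature, following the beta-lactamase FRET read.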

[4] = biological target: Vitamin D3 receptor (Homo sapiens) (UniProt P11473); test: qHTS assay to identify small molecule agonists of the vitamin D receptor (VDR) signaling pathway (AID 743222; calls by dose curve; note: potency is the fitted concentration of half-maximal effect); details: HEK293T VDR-UAS-bla, beta-lactamase FRET ratio, 16 h; activation: at 63.5 µM (top of the series) unless noted
Chain of UniProt P11473 (P11473 whole entry, looked up): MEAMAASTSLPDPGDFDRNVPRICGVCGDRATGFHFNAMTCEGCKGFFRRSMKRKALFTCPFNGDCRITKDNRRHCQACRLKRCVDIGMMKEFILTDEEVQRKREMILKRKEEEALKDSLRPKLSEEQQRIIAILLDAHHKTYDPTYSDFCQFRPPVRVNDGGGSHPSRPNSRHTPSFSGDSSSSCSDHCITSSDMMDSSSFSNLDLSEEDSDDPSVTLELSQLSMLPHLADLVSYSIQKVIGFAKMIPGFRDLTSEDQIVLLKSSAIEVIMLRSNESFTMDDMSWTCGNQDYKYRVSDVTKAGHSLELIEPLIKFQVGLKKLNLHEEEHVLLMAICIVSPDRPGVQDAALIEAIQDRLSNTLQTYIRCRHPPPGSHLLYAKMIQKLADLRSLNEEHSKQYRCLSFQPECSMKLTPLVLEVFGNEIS
In short: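 VDR-bla cells plated 4 h at 37 C, then exposed to compounds for 16 h at 37 C. Beta-lactamase reporter activity measured by fluorescence after 2 h room-temperature loading with LiveBLAzer B/G FRET substrate.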

[5] = biological target: Vitamin D3 receptor (Homo sapiens) (UniProt P11473); test: qHTS assay to identify small molecule antagonists of the vitamin D receptor (VDR) signaling pathway (AID 743223; active = well fitted inhibition curve with a large enough effect in the signal ratio in the repeat runs, not every such curve was filed as active; inconclusive = weak or mixed curves, or effect the other way; inactive = no such curve, though single readings can be large or run the other way; the % refers to the signal ratio; note: potency is the fitted concentration of half-maximal effect; for activity change, negative = inhibition: % is set by controls: 0 for no effect and ±100 for the full control effect); details: VDR-UAS-bla HEK293T, beta-lactamase FRET ratio, 16 h; activity change, negative = inhibition: at 61 µM (top of the series) unless noted
In short: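 VDR-bla cells were plated, incubated 4 h at 37C, then given compound and 1alpha,25-dihydroxyvitamin D3 (3 nM final). After 16 h at 37C, LiveBLAzer B/G FRET substrate was added for 2 h at room temperature and fluorescence read.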

[6] = qHTS assay to identify small molecule antagonists of the vitamin D receptor (VDR) signaling pathway - cell viability counter screen (AID 743225); details: VDR-bla HEK293T viability, CellTiter-Glo luminescence, 16 h; viability change, negative = cytotoxic: at 61 µM (top of the series) unless noted; note: nearly all actives have a fitted effect of over 50% in size; note: potency is the fitted concentration of half-maximal effect
In short: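 VDR-bla HEK 293T cells, 4 h pre-incubation at 37C, then compound plus 1-alpha,25-dihydroxyvitamin D3 (3 nM final) for 16 h. After the beta-lactamase FRET read, CellTiter-Glo was added to the same wells; luminescence after 30 min at room temperature.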

[7] = qHTS assay to identify small molecule agonists of the NFkB signaling pathway - cell viability counter screen (AID 1159515; calls by dose curve; note: nearly all actives have a fitted effect of over 55% in size; note: potency is the fitted concentration of half-maximal effect)
In short: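 NFkB-bla ME-180 cells, 2,000/well, plated overnight at 37 C; compound added for 5 hr at 37 C. Viability read in the same wells as the bla reporter, by CellTiter-Glo luminescence after 30 min at room temperature.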

[8] = qHTS assay for small molecule agonists of the antioxidant response element (ARE) signaling pathway (AID 743202; active = well fitted activation curve with a large enough effect in the signal ratio in the repeat runs, not every such curve was filed as active; inconclusive = weak or mixed curves, or effect the other way; inactive = no such curve, though single readings can be large or run the other way; the % refers to the signal ratio; note: potency is the fitted concentration of half-maximal effect); details: HepG2 ARE-bla reporter, beta-lactamase FRET, 16 h
In short: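 Read-out: LiveBLAzer B/G FRET substrate fluorescence after 2 h at room temperature, following 16 h compound treatment at 37 C of HepG2 cells carrying an ARE-driven beta-lactamase reporter.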

[9] = biological target: Peroxisome proliferator-activated receptor gamma (Homo sapiens) (UniProt P37231); test: qHTS assay to identify small molecule antagonists of the peroxisome proliferator-activated receptor gamma (PPARg) signaling pathway (AID 743191; calls by dose curve; note: % is set by controls: 0 for no effect and ±100 for the full control effect; nearly all actives have a fitted effect of over 30% in size); details: HEK293H PPARg-UAS-bla, beta-lactamase ratio, antagonist, 17 h; ratio activity, negative = inhibition: at 62.6 µM (top of the series) unless noted
Chain of UniProt P37231 (P37231 whole entry, looked up): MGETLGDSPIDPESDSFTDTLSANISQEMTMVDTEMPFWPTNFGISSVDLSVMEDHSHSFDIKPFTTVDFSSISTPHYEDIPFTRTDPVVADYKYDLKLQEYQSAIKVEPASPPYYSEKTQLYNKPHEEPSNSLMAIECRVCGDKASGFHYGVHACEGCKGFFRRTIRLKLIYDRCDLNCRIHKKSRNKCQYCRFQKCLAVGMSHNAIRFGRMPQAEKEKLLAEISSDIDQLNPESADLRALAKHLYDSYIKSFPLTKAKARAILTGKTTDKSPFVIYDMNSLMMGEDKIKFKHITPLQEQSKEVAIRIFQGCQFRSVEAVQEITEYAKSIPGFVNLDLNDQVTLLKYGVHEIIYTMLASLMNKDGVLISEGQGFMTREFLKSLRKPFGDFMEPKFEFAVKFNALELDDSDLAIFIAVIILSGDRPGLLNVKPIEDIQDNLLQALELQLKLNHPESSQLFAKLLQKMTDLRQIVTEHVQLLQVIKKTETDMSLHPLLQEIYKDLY
In short: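 GeneBLAzer PPARg UAS-bla HEK293H cells carrying a UAS-driven beta-lactamase reporter were plated at 3000 cells/well, preincubated 5 h at 37C, then given compound for 17 h at 37C; LiveBLAzer B/G FRET substrate was read after 1 h at room temperature.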

[10] = qHTS assay to identify small molecule agonists of the vitamin D receptor (VDR) signaling pathway - cell viability counter screen (AID 743224); note: nearly all actives have a fitted effect of over 50% in size; note: potency is the fitted concentration of half-maximal effect
In short: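 VDR-bla cells, 4 h after plating, exposed to compounds for 16 h at 37C; viability then read in the same wells as CellTiter-Glo luminescence after 30 min at room temperature, following the bla FRET read.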

[11] = qHTS assay for small molecule activators of the heat shock response signaling pathway (AID 743210; active = well fitted activation curve with a large enough effect in the signal ratio in the repeat runs, with a control signal flat, not every such curve was filed as active; inconclusive = weak or mixed curves; the % refers to the signal ratio; note: potency is the fitted concentration of half-maximal effect); details: HeLa HSE-bla reporter, beta-lactamase ratio, 5 h; activation: at 62.6 µM (top of the series)
In short: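 HSE-bla HeLa cells (beta-lactamase reporter under heat shock response elements) were exposed to compounds for 5 h at 37 C, then loaded with LiveBLAzer B/G FRET substrate for 2.5 h at room temperature before fluorescence reading.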

[12] = qHTS assay for small molecule agonists of the antioxidant response element (ARE) signaling pathway - cell viability counter screen (AID 743203; calls by dose curve; note: potency is the fitted concentration of half-maximal effect; nearly all actives have a fitted effect of over 55% in size)
In short: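 ARE-bla HepG2 cells were plated, rested 5 h at 37C/5% CO2, then exposed to compounds in DMSO for 16 h. Viability was read as CellTiter-Glo luminescence after 30 min at room temperature, in the same wells as the ARE screen.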

[13] = qHTS assay for small molecule activators of the heat shock response signaling pathway - cell viability counter screen (AID 743209); details: HSE-bla HeLa viability, CellTiter-Glo luminescence, 5 h; activity change, negative = cytotoxicity: at 62.6 µM (top of the series) unless noted; note: potency is the fitted concentration of half-maximal effect; nearly all actives have a fitted effect of over 50% in size
In short: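 HSE-bla HeLa cells plated overnight, then exposed to Tox21 compounds (23 nL in DMSO) for 5 h at 37 C. After the bla reporter read, CellTiter-Glo was added in the same wells and luminescence read after 30 min at room temperature.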

[14] = qHTS assay to identify small molecule agonists of the peroxisome proliferator-activated receptor delta (PPARd) signaling pathway - cell viability counter screen (AID 743211); details: PPARd-bla HEK293H viability, CellTiter-Glo luminescence, 17 h; activity change, negative = cytotoxicity: at 62.6 µM (top of the series) unless noted; note: potency is the fitted concentration of half-maximal effect; nearly all actives have a fitted effect of over 55% in size
In short: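 PPARd-bla HEK293H cells (UAS-beta-lactamase reporter) were treated with compounds for 17 h at 37 C. Viability was then read in the same wells by CellTiter-Glo luminescence after 30 min at room temperature.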

[15] = biological target: Bile acid receptor (Homo sapiens) (UniProt Q96RI1); test: qHTS assay to identify small molecule antagonists of the farnesoid-X-receptor (FXR) signaling pathway (AID 743217; active = well fitted inhibition curve with a large enough effect in the signal ratio in the repeat runs, not every such curve was filed as active; inconclusive = weak or mixed curves, or effect the other way; inactive = no such curve, though single readings can be large or run the other way; the % refers to the signal ratio; note: potency is the fitted concentration of half-maximal effect); details: HEK293T FXR-UAS-bla, beta-lactamase ratio, CDCA-stimulated, 16 h; activity change, negative = inhibition: at 62.6 µM (top of the series) unless noted
Chain of UniProt Q96RI1 (Q96RI1 whole entry, looked up): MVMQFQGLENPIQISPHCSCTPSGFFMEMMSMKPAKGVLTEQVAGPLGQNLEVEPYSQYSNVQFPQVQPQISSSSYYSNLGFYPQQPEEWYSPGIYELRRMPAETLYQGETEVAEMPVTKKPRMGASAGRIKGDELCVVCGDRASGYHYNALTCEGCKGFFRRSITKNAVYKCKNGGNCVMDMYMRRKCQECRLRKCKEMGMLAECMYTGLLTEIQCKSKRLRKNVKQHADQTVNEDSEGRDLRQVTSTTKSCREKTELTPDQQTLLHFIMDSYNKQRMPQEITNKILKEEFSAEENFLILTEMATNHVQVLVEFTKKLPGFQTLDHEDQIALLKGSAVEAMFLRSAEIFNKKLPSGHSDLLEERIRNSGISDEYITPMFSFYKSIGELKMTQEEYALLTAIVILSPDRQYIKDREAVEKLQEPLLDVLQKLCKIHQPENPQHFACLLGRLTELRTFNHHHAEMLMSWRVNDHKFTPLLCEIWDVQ
In short: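 FXR-UAS-bla HEK 293T cells (beta-lactamase reporter) given compound plus chenodeoxycholic acid (50 uM final), 16 h at 37C. LiveBLAzer B/G FRET substrate added for 2 h at room temperature; fluorescence read.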

[16] = biological target: Bile acid receptor (Homo sapiens) (UniProt Q96RI1); test: qHTS assay to identify small molecule agonists of the farnesoid-X-receptor (FXR) signaling pathway (AID 743220; active = well fitted activation curve with a large enough effect in the signal ratio in the repeat runs, not every such curve was filed as active; inconclusive = weak or mixed curves, or effect the other way; the % refers to the signal ratio; note: % is set by controls: 0 for no effect and ±100 for the full control effect); details: HEK293T FXR-UAS-bla, beta-lactamase FRET ratio, 16 h; activation: at 62.6 µM (top of the series) unless noted
In short: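 Beta-lactamase reporter under UAS control in GeneBLAzer FXR HEK 293T cells (5000/well) measured with LiveBLAzer FRET substrate after 2 h at room temperature. Compound exposure lasted 16 h at 37C.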

[17] = qHTS assay to identify small molecule antagonists of the farnesoid-X-receptor (FXR) signaling pathway - cell viability counter screen (AID 743221; active = well fitted cell-killing curve with a large enough effect in the repeat runs, not every such curve was filed as active; inconclusive = weak or mixed curves, or effect the other way; inactive = no such curve, though single readings can be large or run the other way); details: FXR-bla HEK293T viability, CellTiter-Glo luminescence, 16 h; activity change, negative = cytotoxicity: at 62.6 µM (top of the series) unless noted
In short: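 FXR-UAS-bla HEK 293T cells were treated with test compounds plus chenodeoxycholic acid (50 uM final) for 16 h at 37 C. Cell viability in the same wells was then read as CellTiter-Glo luminescence after 30 min at room temperature.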

[18] = activation: at 73.3 µM (top of the series) unless noted
Tags give direction and shape of the fitted curve or compound fluorescence and quenching.

## N#CCCCl
[1]
  activity change, negative = cytotoxicity: inconclusive: -35.8% [cytotoxic]
[2]
  Potency: inactive
[3]
  Potency: inconclusive: 2.69 µM [rising, partial curve]
[4]
  Potency: inconclusive: 0.871 µM [rising, full curve, poor fit]
[5]
  activity change, negative = inhibition: inconclusive: 10.7%
[6]
  Potency: inconclusive: 21.9 µM [cytotoxic, single point]
[7]
  Potency: inconclusive: 0.19 µM [cytotoxic, single point]

## O=[N+]([O-])O
[8]; [18]
  Potency: inconclusive: 58.5 µM
  activation: inconclusive: 11.2% and inconclusive: -3.9% and inconclusive: -10.6%
[8]; at 73.3 µM (top of the series)
  activation: inactive: 1.09% and inactive: -13.9%
[2]
  Potency: inactive
[3]
  Potency: inconclusive: 0.0085 µM [rising, full curve, poor fit]
[7]
  Potency: inconclusive: 0.535 µM [cytotoxic, partial curve]

## CCCCC1C(=O)NC(=O)N(C2CCCCC2)C1=O (centres undefined)
[9]
  ratio activity, negative = inhibition: inconclusive: -8.84%
[5]
  Potency: inactive
[10]
  Potency: inactive
[7]
  Potency: inactive

## Clc1cccc(SC2CCNCC2)n1
[8]; [18]
  Potency: inactive
[11]
  Potency: inactive
[4]
  Potency: inconclusive: 0.0007 µM [cytotoxic]
[7]
  Potency: inconclusive: 0.0006 µM [rising, full curve, poor fit]

## Oc1c(Cl)c(Cl)c(Cl)c(Cl)c1Cl
[1]
  Potency: inconclusive: 15.2 µM [cytotoxic, partial curve, poor fit] and inconclusive: 9.75 µM [cytotoxic, partial curve, poor fit]
[8]; [18]
  Potency: inconclusive: 34.3 µM
  activation: inconclusive: -58.3%
[12]
  Potency: inconclusive: 26.8 µM [cytotoxic, partial curve] and inconclusive: 27.2 µM [cytotoxic, partial curve]
[13]
  Potency: inconclusive: 48 µM [cytotoxic, partial curve]
[11]
  Potency: inconclusive: 50.8 µM
[14]
  Potency: inconclusive: 2.45 µM [cytotoxic, partial curve, poor fit]
[2]
  Potency: inconclusive: 30.3 µM [cytotoxic, partial curve, poor fit] and inconclusive: 5.48 µM [cytotoxic, full curve]
[15]
  Potency: inconclusive: 21.4 µM
  activity change, negative = inhibition: inconclusive: -21.1%
[3]
  Potency: inconclusive: 3.81 µM [cytotoxic, full curve, poor fit] and inconclusive: 43.5 µM [cytotoxic, partial curve, poor fit]
[16]
  activation: inconclusive: 4.85%
[17]
  Potency: inconclusive: 2.45 µM [falling, full curve]
[4]
  Potency: inconclusive: 48 µM [fluorescent, partial curve, poor fit]
[5]
  Potency: inconclusive: 53.9 µM
[10]
  Potency: inconclusive: 10.7 µM [cytotoxic, partial curve, poor fit] and inconclusive: 12.3 µM [cytotoxic, partial curve, poor fit]
[6]
  Potency: inactive and inconclusive: 6.15 µM [cytotoxic, partial curve]
[7]
  Potency: inconclusive: 2.75 µM [rising, full curve, poor fit]
